Data published in PubChem BioAssay AID463173 (ICCB-Longwood Screening Facility, Harvard Medical School, 2010).
The whole screen tested about 52,000 compounds, of which about 1,700 (3.3%) were called active. No stated cut-off is given here; in the data, active means survival mostly below about 52% (no sharp cut-off); inactive means mostly above about 56%. The list shows a part of the results.

tested on: Wild type; test: S. aureus survival, RN4220 and DeltatarO strains – OD600, teichoic acid synthesis inhibitors, primary screen (AID 463173); details: S. aureus RN4220 wild type/DeltatarO growth, OD600, 18 h, stronger effect = lower value, screened at 18.75 µg/mL (by protocol)

SMILES	survival
CCOc1ccc(C(=O)N2CCCCC2CCN2CCOCC2)cc1 (configuration not stated)	inactive: 88%
COc1ccc(NC(=O)c2sc3nc(C)c(C(=O)Nc4ccc(Cl)cc4)c(-c4ccc(Br)cc4)c3c2N)cc1	inactive: 75%
CCOc1ccccc1NC(=O)NCCn1c(=O)oc2ccc(C)cc21	inactive: 79%
COc1ccc(-c2nc(-c3ccccc3)c(-c3ccc(O)cc3)[nH]2)cc1	active: 3%
COc1ccccc1CNS(=O)(=O)c1cc2c3c(c1)CCN3C(=O)CC2	inactive: 73%
COC(=O)c1ccccc1NC(=O)Cn1nnc2sc(-c3ccccc3)cc2c1=O	inactive: 85%
CCc1ccc(-c2nn(CC(=O)NC3CCCC3)c3c2cnc2ccc(F)cc23)cc1	inactive: 79%
COc1ccccc1C(=O)NCCn1cc(SCc2ccccc2Cl)c2ccccc21	inactive: 28%
COc1ccccc1C(=O)Nc1nc(-c2ccccc2)ns1	inactive: 57%
CC1=CC(C)(C)Nc2ccc(OC(=O)c3ccco3)cc21	inactive: 125%
C=Cn1cc[n+](CC(=O)c2ccc(C)cc2)c1	inactive: 95%
COc1ccc(Cn2c(C(=O)O)c(CNC3CCCCCC3)c3ccc(OC)cc32)cc1	inactive: 120%
O=C(/C=C/c1ccc(F)cc1)Nc1nc2n(n1)C(c1ccc(Cl)cc1)C=C(c1ccccc1)N2 (configuration not stated)	inactive: 43%
Nc1ncnc2sc3c(c12)CCCC3	inactive: 109%
COc1ccc(OC)c(CNC(=O)CCn2c(=O)c3cccn3c3ccc(F)cc32)c1	inactive: 81%
Cc1cc(C)c2[nH]c(=O)c(CN(Cc3ccco3)C(=S)NCCCN3CCOCC3)cc2c1	inactive: 98%
Cc1ccc2sc(N3CCN(C(=O)CCS(=O)(=O)c4ccc(F)cc4)CC3)nc2c1C	inactive: 82%
COc1ccc(-n2ncc3c(NCCC4=CCCCC4)ncnc32)cc1	inactive: 83%
Cc1noc(/C=C/c2ccco2)c1S(=O)(=O)N1CCC(C(=O)Nc2ccc(F)c(Cl)c2)CC1	inactive: 120%
CCC1=Nc2cc(C(=O)NC3CCCC3)ccc2Sc2ccc(Br)cc21	inactive: 69%
Cc1ccccc1-c1nc(CS(=O)(=O)CC(=O)NCc2cccc(Cl)c2)c(C)o1	inactive: 117%
O=C1c2ccccc2-c2nc3ccccc3c(=O)n21	inactive: 108%
Cc1ccc(S(=O)(=O)N2CCCC(NC(=O)N3CCN(c4ccccc4)CC3)C2)cc1 (configuration not stated)	inactive: 115%

SMILES	survival
C=Cc1ccc(CN2C(=O)N(c3cccc(Cl)c3)S(=O)(=O)c3ccccc32)cc1	inactive: 57%
Cc1ccc2c(=O)c(C(=O)c3cccc(Cl)c3)cn(CC(=O)NCc3ccc(F)cc3)c2n1	inactive: 79%
COc1ccc(C(=O)n2nc(-c3ccco3)nc2NCc2cccs2)cc1	inactive: 93%
COc1cccc(CN2CCc3nc(SCC(=O)Nc4ccccc4)[nH]c(=O)c3C2)c1	inactive: 83%
COc1ccc(C)cc1Nc1c2c(nc3nc(-c4cccs4)nn13)CCCC2	inactive: 63%
Cc1cc(C)nc(N2CCC(C(=O)Nc3nnc(C(C)C)s3)CC2)n1	inactive: 107%
O=C(NCc1cccc(Cl)c1)C(=O)Nc1ccc2nc3n(c(=O)c2c1)CCCCC3	inactive: 118%
CCCCN1CCCc2cc(CN(CCCN3CCOCC3)C(=O)Nc3ccc(OCC)cc3)ccc21	inactive: 80%
O=C(NCc1ccco1)c1ccc(COCC(F)(F)C(F)F)cc1	inactive: 98%
COc1cc(Nc2nc3ccccc3c3nnc(C)n23)cc(OC)c1	inactive: 32%
CCN(CC)S(=O)(=O)c1ccc2c(c1)N(CC(=O)N1CCN(c3ccccc3F)CC1)C(=O)CO2	inactive: 74%
CCOC(=O)c1ccc(Nc2ncnc3c2cnn3-c2cccc(Cl)c2)cc1	inactive: 78%
CCN(C(=O)c1cc2c(s1)-c1ccccc1OC2)c1cc(Cl)ccc1OC	active: 8%
CC1Cc2cc(S(=O)(=O)NCc3ccccc3Cl)ccc2N1C(=O)C1CCC1 (configuration not stated)	inactive: 74%
Cn1c(-c2ccccc2)c(CCO)c2ccccc21	inactive: 113%
Cc1ccc(NC(=O)N2CCc3cc(S(=O)(=O)N4CCC(C)CC4)ccc32)cc1C	inactive: 83%
O=S(=O)(NCCS(=O)(=O)N1CCN(c2ccccc2F)CC1)c1ccc(Cl)cc1	inactive: 105%
Cc1ccccc1NS(=O)(=O)c1nnc(NC(=O)c2ccccc2C)s1	inactive: 68%
NC(=O)c1cccc(S(=O)(=O)N2CCCCC2)c1	inactive: 99%
CCN(CC)c1ccc(C(=O)N2CCC(c3c[nH]c4ccccc34)(c3c[nH]c4ccccc34)CC2)cc1	inactive: 90%
CCOC(=O)c1ccc(NC(=O)c2ncn(-c3ccccc3)n2)cc1	inactive: 88%
COc1ccc(N2CCN(C(=O)CCn3c(=O)c4cccn4c4cccnc43)CC2)cc1	inactive: 93%
CC(NC(=O)Nc1cc(Cl)ccc1Cl)c1c(-n2cccc2)sc2c1CCCC2 (configuration not stated)	inactive: 67%

SMILES	survival
Cc1ccc(-c2nc(-c3cc4cccc(OCc5cccc(C)c5)c4oc3=O)no2)cc1	inactive: 71%
CCn1c(SCC(=O)OC)nnc1-c1ccc(O)cc1	inactive: 114%
O=C(NC1CCN(Cc2ccccc2)CC1)c1ccc(Cn2c(=O)c3ccccc3n(Cc3ccccc3)c2=O)cc1	inactive: 86%
CCc1c(C)nc2nncn2c1Nc1ccc(C(C)C)cc1	inactive: 83%
N#CC1(Nc2ccccc2Cl)C(=O)Nc2ccccc21 (configuration not stated)	inactive: 114%
Cc1ccc(CNC(=O)c2ccc(-n3cnc4cccnc43)cc2)cc1	inactive: 136%
Cc1ccc(NC(=O)/C(C#N)=C/c2cc(C)n(-c3ccc(F)cc3)c2C)cc1C	inactive: 79%
CCc1ccc(NC(=O)Cn2c3ncccc3c(=O)n2-c2ccc(C)c(C)c2)cc1	inactive: 97%
O=C(c1ccc2c(c1)N(Cc1ccccc1F)C(=O)c1ccccc1S2=O)N1CCN(c2ccccc2)CC1 (configuration not stated)	inactive: 90%
O=C(NCCc1csc(-c2cccc(F)c2)n1)c1cccs1	inactive: 85%
Cc1ccc(-c2noc(CN3C(C)CCCC3C)n2)cc1 (configuration not stated)	inactive: 105%
O=C(Cc1ccccc1)Nc1sc2c(c1C(=O)Nc1ccc(Cl)cc1)CCCC2	inactive: 72%
Cc1cccc(NC(=O)CSc2nc3c([nH]c4ccccc43)c(=O)n2C)c1C	inactive: 59%
N#C/C(=C\c1ccc(Cl)cc1)c1nc2ccccc2[nH]1	inactive: 82%
CCOc1ccc(NC(=O)c2ccc(-c3nc(COc4ccccc4)c(C)o3)cc2)cc1	inactive: 89%
CCOC(=O)c1ccc(NS(=O)(=O)c2ccc(Br)s2)cc1	inactive: 64%
COc1ccccc1NC(=O)CSc1oc(-c2cccs2)nc1S(=O)(=O)c1ccc(Br)cc1	inactive: 84%
CC(NC(=O)Nc1ccccc1C(F)(F)F)c1c(-n2cccc2)sc2c1CCCC2 (configuration not stated)	inactive: 106%
COc1ccc(NCc2cc3cc4c(cc3n(CC(=O)Nc3ccc(C)cc3)c2=O)OCO4)cc1	inactive: 93%
COC1(OC)CCCc2c1no[n+]2[O-]	inactive: 109%
COc1ccccc1CNC(=O)Cn1ncc2c3ccccc3n(Cc3ccccc3C)c2c1=O	inactive: 85%
CCOc1ccccc1NC(=O)C1CCN(S(=O)(=O)c2ccccc2)CC1	inactive: 71%
COc1ccc(-c2nc(SCC(=O)Nc3ccc4c(c3)OCO4)c(-c3ccc(OC)cc3)[nH]2)cc1	inactive: 75%

SMILES	survival
CCOc1ccc(S(=O)(=O)N2CCN(c3c(C)cccc3C)CC2)c2ccccc12	inactive: 80%
CN(C(=O)CSc1nc2c(c(=O)[nH]1)CCCC2)c1ccccc1	inactive: 90%
Cc1cc(C)cc(OC(=O)c2snnc2C)c1	inactive: 92%
COc1cc(NC(=O)Cn2ncc3c([nH]c4ccc(C)cc43)c2=O)cc(OC)c1OC	inactive: 82%
COc1cc(C(=O)Nc2ccc3oc(-c4ccccc4)nc3c2)cc(OC)c1OC	inactive: 62%
O=C(NC(Nc1ncccn1)C(=O)c1ccccc1)c1ccccc1 (configuration not stated)	inactive: 119%
COc1ccc(NC(=O)CSc2nnc(-c3cccs3)o2)cc1	inactive: 88%
CCOc1ccccc1Nc1cc(-c2ccccc2)nc(C)n1	inactive: 78%
Cn1c2ccccc2c2c(C(=O)N3CCN(c4ccc(F)cc4)CC3)cn(C3CCCCC3)c(=O)c21	inactive: 133%
COc1cc(Cl)c(C)cc1NC(=O)CSc1ncc(S(=O)(=O)c2ccc(C(C)(C)C)cc2)c(=O)[nH]1	inactive: 102%
O=C1Nc2ccc(S(=O)(=O)Nc3ccccc3O)c3cccc1c23	inactive: 88%
Cc1cc(Cl)c2cccc(Br)c2n1	inactive: 101%
Cc1ccc(C(=O)ON=C2CCN(C)CC2)cc1	inactive: 108%
O=C(O)/C=C/C(=O)Nc1nnc(-c2ccccc2F)s1	inactive: 117%
CC(C)CCN(Cc1ccco1)C(=O)c1cc2c(Cl)nc3ccccc3c2s1	inactive: 77%
Cc1ccc(S(=O)(=O)CC(=O)Nc2sc3c(c2C#N)CCCCC3)cc1	inactive: 64%
CN(C)c1ccc(-n2nc3ccc4ccccc4c3n2)cc1	inactive: 109%
CCOc1ccc(C2Nc3ccccc3-c3nnc(SCc4ccccc4)nc3O2)cc1OC (configuration not stated)	inactive: 83%
CC(Oc1ccccc1)C(=O)Nc1ccccc1 (configuration not stated)	inactive: 117%
COc1ccc(-c2noc(CSCC(=O)Nc3cccc(C(F)(F)F)c3)n2)cc1OC	inactive: 75%
CC(=O)Nc1cccc(NC(=O)C2CCCN2C(=O)Nc2ccccc2Cl)c1 (configuration not stated)	inactive: 107%
CCCOc1ccc(-c2nn(-c3ccccc3)cc2C2NC(=O)NC(C)=C2C(=O)OC)cc1C (configuration not stated)	inactive: 67%
CCOc1ccccc1NC(=O)Nc1nnc(N2CCCCCC2)s1	inactive: 85%
